From article PMC4336329 (PLoS ONE, 2015)
Screen size: about 310,000 compounds; about 14,000 (4.5%) showed an effect of 50% or more. Effects have a minus sign here. This is one part of the list.

Molecular target: human ether-à-go-go-related gene (hERG) potassium channel (human, UniProt Q12809)
Test: primary screen, population patch clamp on CHO cells stably expressing hERG
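Note: peak tail current of the secondary pulse compared with the same well before compound.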

Sequence of human ether-à-go-go-related gene (hERG) potassium channel (Q12809 whole entry, looked up): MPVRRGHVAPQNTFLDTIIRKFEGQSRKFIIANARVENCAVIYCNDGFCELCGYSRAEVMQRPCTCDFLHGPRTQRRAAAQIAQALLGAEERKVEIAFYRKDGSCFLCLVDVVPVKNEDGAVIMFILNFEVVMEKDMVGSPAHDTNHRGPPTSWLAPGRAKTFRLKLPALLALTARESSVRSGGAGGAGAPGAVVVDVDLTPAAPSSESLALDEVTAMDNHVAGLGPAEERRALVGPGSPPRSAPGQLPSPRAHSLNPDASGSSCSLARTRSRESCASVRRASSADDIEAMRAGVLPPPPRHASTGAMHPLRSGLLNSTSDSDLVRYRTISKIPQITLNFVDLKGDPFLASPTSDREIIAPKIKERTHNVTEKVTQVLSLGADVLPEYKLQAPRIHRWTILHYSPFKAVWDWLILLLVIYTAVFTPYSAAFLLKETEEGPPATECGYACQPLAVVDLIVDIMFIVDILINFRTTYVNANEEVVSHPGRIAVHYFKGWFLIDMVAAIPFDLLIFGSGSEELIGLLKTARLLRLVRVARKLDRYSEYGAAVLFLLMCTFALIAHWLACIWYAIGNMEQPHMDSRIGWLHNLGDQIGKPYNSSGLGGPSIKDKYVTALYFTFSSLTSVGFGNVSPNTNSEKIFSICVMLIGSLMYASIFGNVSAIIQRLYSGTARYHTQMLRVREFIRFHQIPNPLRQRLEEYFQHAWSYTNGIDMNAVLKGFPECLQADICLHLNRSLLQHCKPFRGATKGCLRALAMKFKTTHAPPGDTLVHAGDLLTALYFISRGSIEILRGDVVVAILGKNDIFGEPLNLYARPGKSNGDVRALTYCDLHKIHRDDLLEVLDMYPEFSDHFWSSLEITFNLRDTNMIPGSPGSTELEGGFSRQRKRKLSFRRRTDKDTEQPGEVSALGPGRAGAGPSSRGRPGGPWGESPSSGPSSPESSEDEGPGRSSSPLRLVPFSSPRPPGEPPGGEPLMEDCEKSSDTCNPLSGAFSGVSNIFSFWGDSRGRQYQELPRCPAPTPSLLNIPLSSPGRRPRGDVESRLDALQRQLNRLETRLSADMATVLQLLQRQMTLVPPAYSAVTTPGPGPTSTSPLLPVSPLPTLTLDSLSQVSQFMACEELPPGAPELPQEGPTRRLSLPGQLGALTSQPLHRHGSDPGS

Row | Compound | hERG current change (%, negative = inhibition) at 10uM [%]
1 | O=C(c1ccccc1)N1N=C(C(F)(F)F)CC1(O)c1ccccc1O (centres unmarked) | 21
2 | COc1cccc(NC(=O)Nc2cc(C(=O)NC(C)C)ccc2N2CC3CC(C2)c2cccc(=O)n2C3)c1 (centres unmarked) | -19.5
3 | CC1(c2ccccc2)NC(=O)N(CC(=O)Nc2ccc(C(N)=O)cc2)C1=O (centres unmarked) | 22
4 | O=C(NCc1cccc(C(F)(F)F)c1)c1cccc(Cl)c1Cl | 10.5
5 | O=C(c1ccc(Cl)c([N+](=O)[O-])c1)N1CCN(Cc2ccc3c(c2)OCO3)CC1 | -26.7
6 | Cc1nc(Cl)c2c(n1)NC(=O)CO2 | 16.6
7 | CS/C(=N\S(=O)(=O)c1cccs1)NC(=O)CSc1nc2ccccc2s1 | 21
8 | O=C(c1cc2ccccc2oc1=O)N(Cc1ccco1)CC1CCCO1 (centres unmarked) | 6.96
9 | CCOc1cc(CNc2ccc3c(c2)CCC3)ccc1OC | -8.96
10 | CC(C)CN(C(=O)CSc1nnnn1C)C1CCS(=O)(=O)C1 (centres unmarked) | 26
11 | O=C(CN1CCN(Cc2ccccc2)CC1)N=Nc1c(O)[nH]c2ccccc12 | -65
12 | CC1CCN(CCCNC(=O)c2ccc(Cn3c(=S)[nH]c4ccc(Br)cc4c3=O)cc2)CC1 | -40.1
13 | Cn1c(=O)n(C)c2cc(NC(=O)C(F)(F)F)ccc21 | 4.79
14 | CCCCNc1c(NC(C)=O)c(=O)oc2ccccc12 | 20.7
15 | CCOc1ccc(Br)cc1S(=O)(=O)Nc1ccccc1N1CCOCC1 | -15.8
16 | COc1ccc(OC)c(CNc2ccc3c(c2)CCC3)c1 | 20.4
17 | c1ccc(Nc2nc(N3CCCCC3)nc(N3CCNCC3)n2)cc1 | -38.1
18 | COc1ccc(NC(=O)CNC(=O)c2c(C)nn(C)c2Cl)cc1 | 25.3
19 | CCc1c(C(=O)N2CCN(c3ccccc3F)CC2)[nH]c(C)c1C(C)=O | 2.5
20 | COCCn1c(SCC(=O)Nc2ccc(NC(=O)c3ccco3)c(OC)c2)nc2ccccc2c1=O | -12.1
21 | CC(NC(=O)c1ccco1)c1ccc2c(c1)OCO2 (centres unmarked) | -25.4
22 | CCOC(=O)c1sc(NC(=O)c2ccc(S(=O)(=O)N(CC)CC)cc2)nc1C | -2.85
23 | Cc1cccc(Cn2ccc(NC(=O)c3ccc4c(c3)OCO4)n2)c1 | -34.3

Row | Compound | hERG current change (%, negative = inhibition) at 10uM [%]
24 | O=c1cc(-c2ccccc2)nc2nc(CCc3ccccc3)[nH]n12 | 11.7
25 | CN1C(=O)c2oc3ccccc3c(=O)c2C1c1cccnc1 (centres unmarked) | -8.75
26 | CCOC(=O)c1ncccc1NC(=O)CC(=O)Nc1cccnc1C(=O)OCC | 11.3
27 | COc1ccc(CCNC(=O)CCC(=O)N2CC(C)Oc3ccc(Cl)cc32)cc1OC (centres unmarked) | -19.2
28 | CSCCC(NC(=O)c1cccc([N+](=O)[O-])c1)c1nc2ccccc2[nH]1 (centres unmarked) | -49.3
29 | CC(=O)c1ccc(N2C(=O)NC3(CCCCC3)C2=O)cc1 | -3.51
30 | O=C1NC(=O)C2(Cc3ccccc3N3CCCC32)C(=O)N1 (centres unmarked) | 1.45
31 | COC(=O)[C@H]1C[C@@H]1[C@H](NP(=O)(c1ccccc1)c1ccccc1)c1ccccc1 | -0.634
32 | c1ccc2[nH]c(NCCN3CCOCC3)nc2c1 | 10.9
33 | CCCn1c(C)cc(/C=C(\C#N)C(=O)OCC(=O)Nc2cccc(OC)c2)c1C | 6.27
34 | CCCCOC(=O)CSc1nnc(-c2cc(OC)c(OC)c(OC)c2)o1 | -11.9
35 | CCc1noc(C)c1C(=O)Oc1ccc(N(C)S(=O)(=O)c2ccc(C)cc2)cc1 | -18.4
36 | CN(C(=O)c1ccc(F)c(S(=O)(=O)N2CCOCC2)c1)C1CCCCC1 | 4.46
37 | COc1ccc(C2C(C(=O)Nc3cccc(C)n3)CCC(=O)N2c2ccc(OC)cc2)cc1 (centres unmarked) | -16.4
38 | COc1ccc(NC(=O)COC(=O)C23CC4CC(CC(Cl)(C4)C2)C3)c(OC)c1 | 10.4
39 | CN(c1ccc(C(=O)N2CCN(Cc3ccc4c(c3)OCO4)CC2)cc1)S(C)(=O)=O | -3.82
40 | CNc1nc(N)nc(OC(C(F)(F)F)C(F)(F)F)n1 | -18.1
41 | O=C(/C=C/c1ccc(Br)o1)Nc1nnc(C2CC2)s1 | -4.06
42 | CCCn1c2c(c(=N)c3c1CCC3)CCC2.I | 7.05
43 | Nc1nc2c(s1)CCc1c-2cnn1-c1ccccc1 | 7.41
44 | S=c1[nH]nc(C2CCCCC2)o1 | 11.7
45 | CN(Cc1cccc(F)c1)C(=O)c1ccc2c(=O)n3c(nc2c1)CCC3 | 7.35
46 | COc1ccc(C2C(=O)c3ccccc3C2=Nc2ccc(Br)cc2)cc1 (centres unmarked) | 18

Row | Compound | hERG current change (%, negative = inhibition) at 10uM [%]
47 | CCOc1ccccc1NC(=O)Nc1c(C)n(-c2ccccc2)c(=O)n1C | 0.0552
48 | CN1C(=O)CSc2ccc(NC(=O)N3CCN(c4ccccc4)CC3)cc21 | -25.3
49 | O=C(N/N=C/c1ccc(OC(F)F)cc1)c1cc[n+]([O-])cc1 | 7.4
50 | CCOc1ccc(NC(=O)CCS(=O)(=O)c2cccc3nsnc23)cc1 | -7.64
51 | C/C(=N\NC(=O)c1ccc(O)cc1)c1ccc(N2CCOCC2)cc1 | 4.69
52 | CCOC(=O)c1sc2nc3n(c(=O)c2c1C)CCC(C)CC3 (centres unmarked) | -9.1
53 | Cc1ccc(N2CC(C(=O)Nc3nnc(SCC(=O)NCC4CCCO4)s3)CC2=O)cc1 (centres unmarked) | 11
54 | Cc1cc(C(=O)N/N=C/c2cccn2C)no1 | 1.69
55 | O=C(NCC(c1ccco1)N1CCOCC1)c1c(F)cccc1F (centres unmarked) | -2.75
56 | CCc1ccc(C(C)NC(=S)NC2CCCCC2)cc1 (centres unmarked) | 8.85
57 | Cc1cc(C(=O)Nc2ccccc2)c(C)o1 | 5.89
58 | Cc1ccc(Cn2ncc(Cl)c(Cl)c2=O)cc1 | -0.0595
59 | NC(=O)c1nsc(C(=O)N(c2cccc(F)c2)C(C(=O)NC2CCCC2)c2ccco2)c1N (centres unmarked) | 4.94
60 | Cc1ccc(S(=O)(=O)N(Cc2n[nH]c(=S)n2-c2ccccc2)c2cccc(Cl)c2)cc1 | -4.59
61 | CC(=O)Nc1ccc(S(=O)(=O)Nc2nc3ccccc3nc2N2CCCCCC2)cc1 | -8.36
62 | CC(NCc1ccco1)C(=O)N1CCc2ccccc2C1.Cl (centres unmarked) | 14
63 | C=CCOC(=O)C1=C(C)Nc2nc3ccccc3n2C1c1ccncc1 (centres unmarked) | -2.4
64 | CC(=NCCN1CCN(C(C)=C2C(=O)c3ccccc3C2=O)CC1)C1=C(O)CC(C)(C)CC1=O | -50.5
65 | CN(C)S(=O)(=O)c1ccc(C(=O)OCC(=O)NCc2ccco2)cc1 | 11.6
66 | CCNC(=O)CN(c1ccccc1OC)S(=O)(=O)c1cccs1 | -5.25
67 | CCOc1ccccc1NC1c2ccccc2C(=O)N1Cc1ccco1 (centres unmarked) | -24.6
68 | CC1CCN(S(=O)(=O)N2CCCC(C(=O)NCc3ccc(F)cc3)C2)CC1 (centres unmarked) | -3.29
69 | CCc1cc2c(=O)n(-c3ccccc3)c(SCC(=O)O)nc2s1 | 17.6

Row | Compound | hERG current change (%, negative = inhibition) at 10uM [%]
70 | Cc1ccc(C(=O)Cn2c(C(=O)O)cc3ccccc32)cc1 | 6.92
71 | Cc1ccc(OCCC(=O)OCC(=O)NCc2ccccc2)cc1 | -0.864
72 | COc1ccc(/C=N/NC(=O)c2cccc(OC(F)(F)C(F)F)c2)c(OC)c1OC | -3.77
73 | O=C(NCc1ccncc1)/C(=N/O)c1ccccc1 | 18.7
74 | O=C(Nc1cc(Sc2ccccn2)cc([N+](=O)[O-])c1)c1cccc(F)c1 | 8.13
75 | Cc1cc(OCC(O)CN2CCCC2)ccc1C(C)C.Cl (centres unmarked) | -20.1
76 | Cc1cc(/C=C2/C(=O)NC(=O)N(Cc3ccco3)C2=O)c(C)n1-c1ccccc1 | 5.76
77 | CCOC(=O)/C(C#N)=C/c1ccc(OC)c(OC)c1 | 2.78
78 | C[C@H]1CN=C(Nc2ccccc2)N1CCC1CCCCC1 | -46.8
79 | CCOC(=O)n1c(=O)n(Cc2ccc(OC)cc2)c2ccccc21 | -9.02
80 | O=[N+]([O-])c1cc(Cl)c(O)c(-[n+]2c(-c3ccccc3)cc(-c3ccccc3)cc2-c2ccccc2)c1.[O-][Cl+3]([O-])([O-])[O-] | -38.7
81 | CC(C)CN(C(=O)COC(=O)c1cccc2ccccc12)c1c(N)n(Cc2ccccc2)c(=O)[nH]c1=O | 6.01
82 | CCCNC(=O)c1onc(CSc2ccncc2)c1C(=O)NCCC | -21.7
83 | CC(=O)c1ccc(NC(=O)CO/N=C(\C)c2cccs2)cc1 | -8.22
84 | CCOC(=O)c1c(C)noc1-c1ccc(Br)o1 | -4.9
85 | CN(CC(=O)Nc1ccc(F)cc1)C(=O)COC(=O)c1ccccc1 | -11.6
86 | O=c1cc(C(F)(F)F)c2sc(N3CCCCC3)nc2[nH]1 | 20.1
87 | CCCC(=O)OCC(=O)NCc1ccc(Cl)cc1 | 17.6
88 | Cc1ccc(C(=O)Nc2cccc(C(=O)N3CCOCC3)c2)cc1 | -8.21
89 | CCCOP(=O)(OCCC)C(NC(=O)C(C)(C)C)c1ccccc1 (centres unmarked) | 8.73
